According to patent US20040224408A1 (published 2004):

Biological target: T1, Glutathione S-transferase (GST) control protein (pGEX-2T) (UniProt P08515 = GST)
T1 construct: Negative control immobilized on glutathione sepharose; also called GST beads; immobilized GST alone
Test: GST pull-down, immobilized GST control, in vitro translated 35S-labelled chemokine
Experimental: To confirm the interaction observed in yeast two-hybrid system, we performed in vitro GST pull down assays. THAP1, expressed as a GST-tagged fusion protein and immobilized on glutathione sepharose, was incubated with radiolabeled chemokines that were translated in vitro.
In vitro-translated chemokines were generated with the TNT-coupled reticulocyte lysate system (Promega, Madison, Wis., USA) using as templates pGBKT7-CCL21, -CCL19, -CXCL9, -CXCL10 and CXCL11 chemokine vectors (see Example 32) or pCMV-SPORT6-CCL5 plasmid (Image clone No. 4185200). In vitro-translated IFNγ cytokine was generated similarly using as template plasmid pGBKT7-IFNγ. A 25 μvolume of ³⁵S-labelled chemokine was incubated with immobilized GST-THAP1 or GST proteins overnight at 4° C., in the following binding buffer: 10 mM NaPO4 pH 8.0, 140 mM NaCl, 3 mM MgCl₂, 1 mM dithiothreitol (DTT), 0.05% NP40, and 0.2 mM phenylmethyl sulphonyl fluoride (PMSF), 1 mM Na vanadate, 50 mM β-glycerophosphate, 25 μg/ml chymotrypsine, 5 μg/ml aprotinin, and 10 μg/ml leupeptin. Beads were then washed 5 times in 1 ml binding buffer. Bound proteins were eluted with 2×Laemmli SDS-PAGE sample buffer, fractionated by 10% SDS-PAGE and visualized by fluorography using Amplify (Amersham Pharmacia Biotech). GST/THAP1 specifically bound to chemokines CCL21, CCL19, CCL5, CXCL9, CXCL10 and CXCL11 but not cytokine IFNγ (FIGS. 19 and 20). […]

binding result: no binding
B1: human chemokine IP10/CXCL10, mature form ([…]) (ligand)
chain: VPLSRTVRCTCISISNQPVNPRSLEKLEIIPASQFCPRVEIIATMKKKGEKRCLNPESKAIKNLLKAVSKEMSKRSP
notes: The range is stated on the GenBank entry; Tested as a Gal4-BD fusion (pGBKT7-CXCL10) and as in vitro translated 35S-labelled protein from that vector
